± gives the standard deviation of the averaged measurements. The list shows a part of the results.
Each sequence was assayed on PfAP2-EXP AP2 domain (GST-tagged) (assay: gcPBM binding intensity (ln(normalized median fluorescence intensity)); higher = stronger DNA binding).
Method in brief: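 The binding buffer was 1× PBS containing 1% milk, 0.2 mg/ml BSA, 0.5% salmon testes DNA and 0.03% Triton X-100. In it, GST-tagged P. falciparum DNA-binding domains expressed in E. coli were applied for 1 h to an Agilent 4 × 180k array of primer-extended double-stranded 36-bp intergenic genomic probes plus negative controls. Binding intensity, read with Alexa488 anti-GST antibody and a 488 nm scan, is the highest Masliner-normalised natural-log median intensity across replicate spots of either probe orientation.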

Sequence | gcPBM binding intensity (ln)
TTGTATATTATATGTACACACAATAAGTTAATATAA [CACACA_site909] | 8.41 ± 0.3
ATAATATATTTTTGAACACACAATATAGATTTATAT [CACACA_site7857] | 8.26 ± 0.48
TTCCTTTGTCCTAACTGTACTCAAATTTATTAGTGG [XGTACX_site226] | 8.96 ± 0.43
TAAATACAAAAATGTACACACATATATATATTTTTA [CACACA_site3503] | 8.2 ± 0.27
CGGCACATTATATATACACACATATAAATATATACA [CACACA_site8086] | 8.39 ± 0.37
TAAATTTTAATATGCACACAAAATGTTATATTAAAA [CACACA_site4366] | 8.14 ± 0.26
TATATAAATATATATACACACAAAAAAAAAAAAAAA [CACACA_site1406] | 8.36 ± 0.52
TAAATGAAAACCATTAGTACTTATACTGATAAATGT [XGTACX_site763] | 8.34 ± 0.4
TATATCTTAATATACACACACACATATATATATATA [CACACA_site4968] | 10 ± 0.35
TAAATATTTTTATGGGTGCGTTCTTTAGCGCAATTT | 8.67 ± 0.14
CATATAAAAAATATGGTGCAGTTTTTTTTTTTTTTT | 8.48 ± 0.16
TATATATATAATGTTTGTACATATTAAATATATATG [XGTACX_site407] | 8.95 ± 0.11
AAAAAAAGTTGATACTGTACTCGTGCATTATGAATA [XGTACX_site5558] | 9.06 ± 0.33
CTTATTAAAATTATTTGTACACAATATGTAAAAGTA [XGTACX_site7237] | 8.35 ± 0.39
TAATTAAAATTATCTACACACCTTTATAAATATATA [CACACA_site3928] | 8.15 ± 0.4
AGGTATTTTCTTGTGACACACATATATATATATATT [CACACA_site2220] | 9.13 ± 0.38
TTTATATTGATATATACACACATATACATCCTATTT [CACACA_site7442] | 8.46 ± 0.4
ATTATTGTTGTTCATGTACACACTATAATAAAAGCA [CACACA_site4168] | 8.64 ± 0.32
TTTTGCAATAATGTTGCACACTAAATAGTCATATAT [CACACA_site7977] | 8.61 ± 0.38

Sequence | gcPBM binding intensity (ln)
ATTAATTATTTCAATGCATGTGAACACTATATATAA [TGCATGCA_site600] | 9.03 ± 0.44
AAACTTGTAAGAAACACACACACACGCATATAAATA [CACACA_site6518] | 8.84 ± 0.68
ATAAATAAAATATGCACACAAATATAGGAAACAACA [CACACA_site2561] | 9.03 ± 0.38
AATATTTAAGTACTGGTGCGTGTATATAATGATTAA [GTGCAC_site9633] | 8.665 ± 0.078
TTTATTCCCGCATATAGTACATATACCATTTAATGT [XGTACX_site7011] | 9.01 ± 0.47
GTAAAAAAAGAGCACACACACAAAAACACCCACAAA [CACACA_site1292] | 8.85 ± 0.54
ATATAATATGGTATTACACACTGTTATAAGTATGGC [CACACA_site2094] | 8.57 ± 0.44
CATAAATACACTGTAGCGCACACGGCCAAAAAAAAA [CACACA_site8537] | 8.87 ± 0.48
CATAATTTACATAAAAGTACATATATATTAATGACG [XGTACX_site6247] | 8.57 ± 0.37
TTAAATAAAATTTATTGTACATAAAATTAAATATAG [XGTACX_site3039] | 8.37 ± 0.24
TCCTTTTCTTAATTTAAAAAATATAAAAAAAACGAA [CACACA_negctrl_site1821] | 8.28 ± 0.36
AGAAGCATACATCAAGCACACACACCCACACCCACA [CACACA_site8014] | 8.74 ± 0.35
ACACGTTTATATAAAAAATTAAAATTTTTCTTATTT [CACACA_negctrl_site1523] | 8.54 ± 0.33
ATAACAAAATAAAACACACACACAAATGTACAGATA [CACACA_site5358] | 8.9 ± 0.39
TATTCATGTTTAAAAAGTACATATTATGGTAACATT [XGTACX_site4533] | 8.46 ± 0.45
ATTTTTGTGTTTACACGTACGTGTAAATTATTTTTC [XGTACX_site1869] | 9.04 ± 0.43
ACATATCTACACAGTGGTACTTCCATTAATATATAC [XGTACX_site3827] | 8.81 ± 0.34
AAAAGGGATAAATGTGCGCACATGTTATATATATAT [GTGCAC_site9534] | 10.03 ± 0.042
AACAATGTTGTACATACACACACACTAATAAAAAAT [CACACA_site8758] | 8.9 ± 0.5

Sequence | gcPBM binding intensity (ln)
ATTTATTCAAATGGTTGTACTACAAATAAACATTAT [XGTACX_site3378] | 8.51 ± 0.21
TCATAAATTAAACAAACACACACGTTCTTTTATTTA [CACACA_site713] | 8.38 ± 0.33
AATACATACAGACACACACACACATATAAATAAATA [CACACA_site7642] | 8.66 ± 0.2
GCTCATTGAAGTTATACACACCAAATATGTAAATAT [CACACA_site7217] | 8.52 ± 0.42
ATTTTAACGAATATATGTACATAAAAAAAAAAAAGA [XGTACX_site8750] | 8.91 ± 0.4
TAAGTAAAAAATTAAAAAGATTACAGGGGGGGAAGG [XGTACX_negctrl_site491] | 9.87 ± 0.2
GACATAAGATAATTACACATTGTTTCCTCAATAATA [CACACA_negctrl_site1616] | 8.46 ± 0.32
TTTCTTTAATATATAGTGCATGTAAATTTTACAATA [GTGCAC_site9679] | 8.96 ± 0.2
AAAAAAAAAAACAGTTGTACATTTATTTATATATTA [XGTACX_site217] | 8.15 ± 0.35
AAAATAAGGACTGTTGTGCACTGGATTTGTGGTTAC [GTGCAC_site9830] | 9.04 ± 0.22
AAAATAAAATTTACTTGTACTAAAGGGATACGCGCA [XGTACX_site1453] | 8.59 ± 0.26
AATTAATATTTAAATTGTACATGAACATTTTAATGT [XGTACX_site462] | 8.24 ± 0.38
TAAATATTATTTATATGTACTGATATATTAAATAAA [XGTACX_site3446] | 8.03 ± 0.37
AATATAAATTTATATTGTACATATTTTATTATATGT [XGTACX_site905] | 8.45 ± 0.39
GTCACAAAATAAATTAAACACACAACATCATATATG [CACACA_site8182] | 8.69 ± 0.53
GTGTATCAATATGTAGGTACGTAAATATAGATAATA [XGTACX_site5526] | 8.78 ± 0.41
ATTAATATGAATAAATGTACAAATGAATGATTACAT [XGTACX_site6044] | 8.55 ± 0.59
TAATATAATATATAGGTGCAATATTAACAAAAATTT | 8.63 ± 0.085
ATAATGTGTTAGGCGTGTACACAATTGTATGGTTTA [XGTACX_site2377] | 8.88 ± 0.23
